The campaign covered roughly 1,500 compounds. About 100 (6.7%) were called active. Inconclusive results (about 7%) are left out. The call rests on the fitted dose curve; in most records, active means well fitted inhibition curve with a large enough effect; inconclusive means small, poorly fitted or top-dose-only effect, or effect the other way; inactive means flat fitted curve, though single readings scatter. Some of the results follow.
What follows are compounds tested against Runt-related transcription factor 1 (Homo sapiens) + Core-binding factor subunit beta (Homo sapiens) (UniProt Q01196+Q13951) (assay: qHTS Assay for Compounds Blocking the Interaction Between CBF-beta and RUNX1 for the Treatment of Acute Myeloid Leukemia: Hit Validation). Conditions: AlphaScreen CBFb-His/RUNX1-biotin binding; series mostly up to 59.8 µM; activity, negative = inhibition: at the top concentration.
UniProt Q01196, sequence (Q01196 whole entry, looked up): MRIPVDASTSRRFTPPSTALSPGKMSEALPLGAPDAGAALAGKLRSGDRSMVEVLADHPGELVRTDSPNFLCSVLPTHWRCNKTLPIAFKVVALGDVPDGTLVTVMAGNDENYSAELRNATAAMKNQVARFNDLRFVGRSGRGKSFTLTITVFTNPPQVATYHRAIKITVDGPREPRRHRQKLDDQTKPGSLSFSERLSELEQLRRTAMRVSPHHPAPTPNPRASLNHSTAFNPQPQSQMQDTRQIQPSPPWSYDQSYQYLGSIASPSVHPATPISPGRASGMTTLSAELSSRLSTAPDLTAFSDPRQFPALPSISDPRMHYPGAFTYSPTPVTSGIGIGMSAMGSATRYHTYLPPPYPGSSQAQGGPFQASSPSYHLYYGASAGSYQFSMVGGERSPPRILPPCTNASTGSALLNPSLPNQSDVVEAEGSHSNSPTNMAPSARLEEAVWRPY
UniProt Q01196, sequence (Q13951 whole entry, looked up): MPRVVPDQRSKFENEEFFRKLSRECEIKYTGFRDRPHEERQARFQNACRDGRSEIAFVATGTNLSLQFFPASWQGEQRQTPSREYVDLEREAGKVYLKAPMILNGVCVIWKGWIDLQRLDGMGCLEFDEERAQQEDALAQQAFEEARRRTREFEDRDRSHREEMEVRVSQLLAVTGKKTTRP
How it was run: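 AlphaScreen proximity assay: His-tagged CBF-beta and biotinylated RUNX1 (30 nM each) preincubated 20 min, then compound 15 min, then nickel and streptavidin beads 90 min, all at room temperature; signal read at […]em 440 nm.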
Further: nearly all actives have a fitted effect of over 60% in size.
On the % scale 0 is the no-effect control and ±100 the full control effect; potency means the concentration at half of the fitted maximal effect.

activity, negative = inhibition, inactive:
O=C(O)/C=C/C(=O)Nc1ccc(Cl)cc1C(=O)c1ccccc1 -3.57%
O=C(c1ccc(Cl)cc1Cl)N1CCSCC1 -0.685%
Cc1cc(C)nc(S/C=C/C(=O)c2ccccc2)n1 -29%
O=C(c1ccccc1)c1ccc(Sc2ccc([N+](=O)[O-])cc2)cc1 13.4%
CCCCNC(=O)Nc1nnc(C(C)(C)C)s1 -19.8%
C[C@H](N)C(=O)OCc1ccc([N+](=O)[O-])cc1 -0.667%
Cn1nc2sc3ccccc3n2c(=O)c1=O 17.9%
CC(C)(C)c1cc(C(=O)NN)n(Cc2ccc(Cl)cc2Cl)n1 -0.295%
COc1ccc2[nH]c(=O)c(CN(C(=O)c3cccnc3)c3ccc(C)cc3C)cc2c1 -3.33%
Cc1ccnn1CC(=O)N/N=C/c1c[nH]c2ccccc12 3.16%
COc1ccccc1C(=O)N1CCC(N2CCN(c3ccccc3)CC2)CC1 -0.196%
C=CCNC(=S)NCC -8.82%
CCCCOC(=O)CCc1c(C)n[nH]c1C -2.54%
O=C(COc1ccc(Cl)cc1)N(Cc1ccco1)C1CCS(=O)(=O)C1 (stereo not drawn) -2.06%
Cc1ccn(C)c(=N)c1 -1.05%
CC1CN(S(=O)(=O)c2cccc(C(F)(F)F)c2)CC(C)O1 (stereo not drawn) -0.629%
Clc1ccc(/C=C/c2nc(Cl)c(-c3ccc(Cl)cc3)c(Cl)n2)cc1 -3.31%
CCc1nc2ccccc2nc1N1CCN(S(=O)(=O)c2ccc(Cl)cc2)CC1 -3.31%
NC(=O)CNC(=O)c1cccc(Cl)c1 -1.53%
Cc1onc(-c2c(F)cccc2Cl)c1C(=O)Nc1ccccc1N1CCOCC1 -11.4%
CCOC(=O)C1CCCN(C(=O)Nc2c(-c3ccccc3)noc2C)C1 (stereo not drawn) 0.758%
O=P(O)(O)c1cc(-c2ccccc2)oc1-c1ccccc1 0.0456%
Cc1ccc(S(=O)(=O)NNC(=O)c2cnn(-c3ccc(Cl)cc3)c2C(F)(F)F)cc1 -5.18%
COC(=O)c1c(NS(=O)(=O)c2ccccc2)csc1C 0.851%
S=C(Nc1ccccc1)N1CCCN1c1ccccc1 4.77%
CCOc1ccc(-c2noc(-c3cccnc3)n2)cc1OCC -2.87%
Cc1ccc(/C(O)=C/C(=O)C(=O)NC23CC4CC(CC(C4)C2)C3)cc1 -5.18%
CC[C@H](C)[C@H](NC(=O)c1ccccc1)C(=O)Nc1ccc(S(=O)(=O)Nc2cc(C)nc(C)n2)cc1 0.637%
CCCC1=NN(C(=O)Cc2ccc(OC)c(OC)c2)C(O)(C(F)(F)F)C1 (stereo not drawn) -1.48%
CCCCCCCc1c(O)nc(SCC(=O)O)[nH]c1=O -14.1%
COC(=O)Cc1cccc2c(=O)c3ccccc3oc12 1.24%
Clc1ccc(Nc2cc(-c3ccccc3)nc3ncnn23)cc1 -4.41%
COCc1cc(=O)[nH]c2c1c(-c1ccccc1)nn2C 0.43%
COC(=O)[C@H](CCSC)NC(=O)Nc1cc(OC)cc(OC)c1 -12.2%
O=C(Nc1ccc(Cl)cc1)Nc1ccc(C(=O)N2CCOCC2)cc1 -1.96%
Cc1nn(Cc2ccccc2)c(C)c1/C=N/NC(=O)c1ccncc1 1.18%
Cc1cccc(C(=O)N/C(=C\c2ccc(C)o2)C(=O)O)c1 -12.8%
CN1C(=O)C(CC(=O)NCCc2ccccc2)N(NC(=O)c2ccc(Cl)cc2)C1=S (stereo not drawn) 0.238%
CC(=O)Nc1cccc(S(N)(=O)=O)c1C 1%
O=S(=O)(Nc1nc(SCc2ccc(Cl)cc2)n[nH]1)c1ccccc1 -15.9%
O=c1[nH]nc(N2CCOCC2)c(=O)[nH]1 0.379%
Cc1nc(N2CCOCC2)nc(Oc2ccccc2F)c1[N+](=O)[O-] 12.2%
CCc1cccc(C)c1NC(=O)N(C)C1CCCCC1 -17.7%
CCN(CC)C(=O)CSc1nnc2nnc3cc(OC)ccc3n12 -50.1%
Cc1cc(C(=O)N/N=C/c2c(C)nn(-c3ccccc3)c2C)n[nH]1 -4.32%
N#Cc1ccc(S(=O)(=O)N2CCCN(c3ccc(C(F)(F)F)cn3)CC2)cc1 3.3%
CCOc1cccc2cc(C(N)=O)c(=N)oc12 -6.73%
O=S(=O)(c1cccc(F)c1)N1CCCN(c2ccc(C(F)(F)F)cn2)CC1 -0.754%
O=C(CSc1n[nH]c(=O)[nH]c1=O)NCC1CCCCC1 -3.15%
OCCNc1nc2ccccc2nc1NCCO -2.36%
CCOC(=O)N1CCc2c(sc(N)c2C#N)C1 -3.97%
O=c1c2ccccc2c(-c2ccccc2)nn1-c1ccccc1 1.21%
CCn1nc(NC(=O)Cc2ccc(OC)cc2)c2cc3cc(C)ccc3nc21 -2.53%
COc1ccc(-n2c(=S)[nH]c3[nH]ncc3c2=O)cc1 -6.5%
CCc1c(C)nc2c(-c3ccccc3)c(C)nn2c1Nc1ccc(NC(C)=O)cc1 6.82%

Potency, active:
O=C(O[C@@H]1OC2COC(=O)c3cc(O)c(O)c(O)c3-c3c(cc(O)c(O)c3O)C(=O)O[C@@H]([C@H]1O)[C@@H]2O)c1cc(O)c(O)c(O)c1 0.224 µM
CCOC(=O)/C(C#N)=C/c1ccc(OC(=O)c2ccccn2)cc1 3.86 µM
COc1ccccc1/C=C/C=N/n1c(-c2ccccn2)n[nH]c1=S 11.2 µM

Reference: PubChem BioAssay AID504374 (National Center for Advancing Translational Sciences (NCATS), 2011)
